Laboratory results as given in PubChem BioAssay AID588579 (National Center for Advancing Translational Sciences (NCATS), 2011).
Where “and” joins values, the source holds several entries; their conditions need not be identical. Equal entries are not always repeated. Among all 400,000 compounds or so, about 2,200 (0.55%) were called active. The shares of active, inactive and inconclusive entries below differ from those in the screen. Calls follow the shape of the dose curve; as a rule, active = well fitted inhibition curve with a large enough effect; inconclusive = small, poorly fitted or top-dose-only effect, or another doubt; inactive = no such curve, though single readings can be large or run the other way. Potencies of inconclusive entries are doubtful fits and often do not repeat.

molecular target: DNA polymerase kappa (Homo sapiens) (UniProt Q9UBT6); test: qHTS for Inhibitors of Polymerase Kappa; conditions: purified Pol kappa, fluorescent DNA synthesis assay, 10 min; series mostly up to 107 µM; activity, negative = inhibition: at the top concentration
Chain of UniProt Q9UBT6 (Q9UBT6 whole entry, looked up): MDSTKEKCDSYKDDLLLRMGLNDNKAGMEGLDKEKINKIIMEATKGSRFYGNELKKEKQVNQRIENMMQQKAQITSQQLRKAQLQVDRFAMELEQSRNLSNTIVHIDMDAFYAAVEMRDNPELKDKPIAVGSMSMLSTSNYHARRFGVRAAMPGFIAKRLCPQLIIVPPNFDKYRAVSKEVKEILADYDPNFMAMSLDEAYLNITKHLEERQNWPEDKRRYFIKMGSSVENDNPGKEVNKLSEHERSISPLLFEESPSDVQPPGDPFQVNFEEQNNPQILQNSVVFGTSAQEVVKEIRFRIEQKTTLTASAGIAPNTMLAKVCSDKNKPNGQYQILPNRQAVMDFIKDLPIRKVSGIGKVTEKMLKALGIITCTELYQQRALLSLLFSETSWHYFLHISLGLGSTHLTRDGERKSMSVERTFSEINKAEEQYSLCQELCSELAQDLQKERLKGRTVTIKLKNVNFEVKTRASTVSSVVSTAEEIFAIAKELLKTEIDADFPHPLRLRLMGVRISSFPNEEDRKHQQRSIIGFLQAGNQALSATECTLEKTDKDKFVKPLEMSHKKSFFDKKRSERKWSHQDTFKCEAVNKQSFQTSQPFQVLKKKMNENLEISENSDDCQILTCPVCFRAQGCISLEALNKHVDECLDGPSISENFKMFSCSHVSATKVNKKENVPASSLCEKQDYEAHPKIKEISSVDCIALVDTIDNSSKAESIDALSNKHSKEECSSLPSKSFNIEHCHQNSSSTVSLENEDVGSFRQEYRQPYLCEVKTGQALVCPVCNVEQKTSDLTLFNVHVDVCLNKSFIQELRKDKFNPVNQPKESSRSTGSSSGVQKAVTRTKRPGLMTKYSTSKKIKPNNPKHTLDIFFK
How it was run: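 10 nM Pol kappa was preincubated with compounds for 15 min at room temperature. Reaction started with 50 nM (final) substrate. Fluorescence read kinetically at 0 and 10 min.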
% is scaled to controls: 0 for no effect and ±100 for the full control effect; potency is read from the fitted curve at half-maximal effect; tags tell the direction and shape of the fitted curve.

Compound | activity, negative = inhibition | Potency
CC(C)OC(=O)c1c(NC(=O)c2cc3nc(-c4ccccc4)cc(C(F)(F)F)n3n2)sc2c1CCCC2 | inactive: -4.86% [at 60.1 µM] | 
Cc1cc(Nc2cccc(C(F)(F)F)c2)nc2ccc(NC(=O)c3cncc(Br)c3)cc12 |  | inconclusive: 89.1 µM [inhibitor, single point]
CCOc1ccccc1NC(=O)Cc1cccs1 |  | inconclusive: 89.1 µM [inhibitor, single point]
CCOC(=O)Cc1nnc(NC(=O)CSc2nnc3c(n2)[nH]c2ccccc23)s1 |  | active: 79.4 µM
CCc1ccc(CNC(=O)c2cc3c(s2)-c2ccccc2OC3)cc1 |  | inconclusive: 79.4 µM [inhibitor, single point]
O=c1c(O)c(-c2cc(O)c(O)c(O)c2)oc2cc(O)ccc12 |  | active: 0.238 µM
Cc1cc(C)nc(SCC(=O)NNS(=O)(=O)c2ccc(C#N)cc2)n1 |  | inconclusive: 89.1 µM [inhibitor, single point]
Cc1ccc(-c2cc(C(=O)NCCCn3ccnc3)c3cc(Br)ccc3n2)o1 |  | inconclusive: 89.1 µM [inhibitor, partial curve, poor fit]
CCn1c(SCC(=O)NC(=O)NCc2ccco2)nc2sc(C)c(C)c2c1=O |  | inconclusive: 89.1 µM [inhibitor, single point]
O=C(C[C@H]1C/C=C\CC[C@@H](Cc2ccc(F)cc2)C(=O)O[C@@H](c2ccccc2)CNC1=O)N[C@@H](CO)Cc1ccccc1 |  | inconclusive: 89.1 µM [inhibitor, single point]
COC(=O)c1ccc(COC(=O)CNC(=O)c2cccs2)cc1 | inactive: -3.59% | 
COc1ccc(C(=O)N2C(=S)NC(=O)/C2=C\c2ccc(C)cc2)cc1 |  | inconclusive: 89.1 µM [inhibitor, single point]
CSc1ccc(/C=C2/C(=N)N3N=C(CC(=O)N4CCCC4)SC3=NC2=O)cc1 |  | inconclusive: 50.1 µM [inhibitor, partial curve, poor fit]
Oc1ccc(/C=N/NC(=S)Nc2cccnc2)c(O)c1O |  | active: 2.24 µM
COc1ccc(-c2ccc3c(c2)S(=O)(=O)c2cccc(C(=O)NCc4cc(C)oc4C(F)(F)F)c2C3=O)cc1OC |  | inconclusive: 79.4 µM [inhibitor, partial curve, poor fit]
N#Cc1c(NC(=O)CSc2ncnc3sccc23)oc(-c2ccco2)c1-c1ccco1 |  | active: 44.7 µM
O=C1NC(=O)/C(=C/c2ccc(-c3ccc(F)cc3O)o2)S1 |  | inconclusive: 37.7 µM [inhibitor, single point]
CCN(CC(=O)Nc1c(F)cccc1F)C(=O)c1ccc(-c2ccc(C(C)=O)cc2)o1 |  | inconclusive: 89.1 µM [inhibitor, single point]
O=C(Oc1ccc2c(c1)OCO2)c1cc2c(s1)CCC2 |  | active: 20 µM
O=C(CCN1C(=O)/C(=C\c2ccco2)SC1=S)Nc1ccc(C(=O)O)c(O)c1 |  | active: 20 µM
O=C(N/N=C/C=C\c1ccco1)c1cccs1 |  | inconclusive: 70.8 µM [inhibitor, partial curve]
O=Cc1ccc(-c2cccc(C(=O)O)c2)o1 |  | inconclusive: 89.1 µM [inhibitor, single point]

Compound | activity, negative = inhibition | Potency
Cc1ccc([C@@H]2C3COCC=C3C(C#N)=C(N)C2(C#N)C#N)o1 (stereo partly specified) |  | inconclusive: 89.1 µM [inhibitor, single point]
CCN(C(=O)COC(=O)/C(=C/c1ccccc1)n1nnnc1C)C1CCCCC1 |  | inconclusive: 89.1 µM [inhibitor, single point]
O=C(Nc1ccc(N2CCCCC2)cc1)c1ccc([N+](=O)[O-])o1 |  | inconclusive: 89.1 µM [inhibitor, single point]
O=C1CNC(=O)/C(=C/c2ccco2)N1 |  | active: 79.4 µM
O=C(NCc1ccco1)c1cccc2c1C(=O)c1ccc(/C=C/c3ccccc3)cc1S2(=O)=O |  | inconclusive: 56.2 µM [inhibitor, partial curve, poor fit]
COc1ccc(-n2nnnc2/C=C\Nc2ccccc2C(=O)c2ccccc2)cc1 |  | inconclusive: 89.1 µM [inhibitor, single point]
O=c1c2c3c(sc2n(Cc2cc(=O)n4ccccc4n2)c(=O)n1-c1ccc(Cl)cc1)CCC3 | inactive: 3.81% | 
O=C(COC(=O)c1ccc(Br)o1)NC1CCCc2ccccc21 (stereo unspecified) | inactive: -14.9% | 
CC(=O)c1ccc(S(=O)(=O)Nc2ccc(-c3ccc4nncn4n3)cc2)cc1 |  | inconclusive: 100 µM [inhibitor, single point]
CCOC(=O)COc1nc(-c2ccco2)cc(-c2ccco2)c1C#N |  | inconclusive: 100 µM [inhibitor, single point]
CCCCCCCC/C=C\CCCCCCCC(=O)NCc1ccc(O)c(OC)c1 |  | inconclusive: 12.6 µM [inhibitor, partial curve, poor fit] and inconclusive: 33.6 µM [inhibitor, single point]
Nc1ccc2nc(-c3cc(Cl)c(N)c(Cl)c3)[nH]c2c1 |  | inconclusive: 50.1 µM [inhibitor, partial curve, poor fit]
Cc1ccc(C(=O)OCc2cc(=O)n3nc(-c4cccs4)sc3n2)cc1 |  | inconclusive: 89.1 µM [inhibitor, single point]
O=C(Nc1cccc(Cl)c1Cl)c1ccc(-c2ccccc2)cc1 |  | inconclusive: 3.55 µM [inhibitor, partial curve, poor fit]
Cc1cc(OCCn2c(CCNC(=O)C3CCCCC3)nc3ccccc32)ccc1Cl |  | inconclusive: 7.94 µM [inhibitor, full curve, poor fit]
COc1cccc(-n2c(-c3ccccc3F)nc3c(cnn3-c3ccc(C)cc3)c2=O)c1 | inactive: -16% | 
CC1=NN(c2nc(-c3ccc(C)cc3)cs2)C(=O)C1N=Nc1ccccc1O (stereo unspecified) | inactive: -13.6% | 
Cc1cc(=O)oc2cc(OCC(=O)N/N=C/c3ccccc3[N+](=O)[O-])ccc12 |  | inconclusive: 100 µM [inhibitor, single point]
CCOC(=O)C1=C(COC(=O)c2ccc([N+](=O)[O-])s2)NC(=O)NC1C (stereo unspecified) |  | inconclusive: 89.1 µM [inhibitor, partial curve, poor fit]
O=C(Cc1ccc(S(=O)(=O)N2CCOCC2)s1)NCC1CCCCC1 | inactive: -29.1% | 
Cc1cc(C(C)(C)C)cc(C)c1COC(=O)c1cccnc1 |  | inconclusive: 100 µM [inhibitor, single point]
Cc1ccc(NC(=O)CN2C(=O)S/C(=C/c3ccc(-c4cc(C(=O)O)ccc4C)o3)C2=O)cc1C |  | active: 79.4 µM

Compound | activity, negative = inhibition | Potency
O=c1cc(-c2cc(O)c(O)c(O)c2)oc2cc(O)cc(O)c12 |  | active: 0.398 µM
Cc1cc(C(=O)N/N=C/c2cc(Br)c(Br)o2)n[nH]1 |  | active: 79.4 µM
CCCN(CCC)CCCNC(=O)Cn1ncc2c3ccccc3n(Cc3ccccc3F)c2c1=O |  | inconclusive: 89.1 µM [inhibitor, single point]
CCc1c(C)sc(NC(=O)CC#N)c1C#N |  | inconclusive: 89.1 µM [inhibitor, single point]
O=c1cc(-c2c(O)c3ccccc3n(Cc3ccccc3)c2=O)[nH][nH]1 |  | active: 79.4 µM
Nc1nonc1C(=O)NCCN=Cc1cc(Cc2ccccc2)cc(Br)c1O |  | inconclusive: 89.1 µM [inhibitor, partial curve, poor fit]
O=C(CNS(=O)(=O)c1ccc(Br)cc1Cl)OCC(=O)c1ccc[nH]1 | inactive: -23.4% | 
CCOc1cc(/C=C2\C(=O)NN(c3ccccc3)C2=O)cc([N+](=O)[O-])c1O |  | active: 44.7 µM
CCCn1c(SCC(O)c2ccccc2)nc2ccccc21 (stereo unspecified) | inactive: -4.26% | 
CCn1c(=O)c2sccc2n2c(CCC(=O)N3CCN(c4ccc(C(C)=O)cc4)CC3)nnc12 | inactive: -4.62% | 
NS(=O)(=O)c1ccc(NC(=O)CSc2nc3c(c(=O)[nH]2)CCCC3)cc1 |  | inconclusive: 35.5 µM [inhibitor, single point]
O=C1/C(=C/c2ccccc2Cl)SC(=S)N1CCC(=O)N1CCCCC1CCO (stereo unspecified) |  | inconclusive: 50.1 µM [inhibitor, partial curve, poor fit]
C=CCNC(=O)CSc1nc2sccc2c(=O)n1-c1ccccc1 |  | inconclusive: 100 µM [inhibitor, single point]
CC(=O)Nc1nonc1-c1nnc(SCC(=O)Nc2cc(C)cc(C)c2)n1-c1ccccc1 | inactive: -20.2% | 
CCOC(=O)Cc1cc(=O)n2[nH]c(C)c(-c3ccccc3)c2n1 |  | inconclusive: 89.1 µM [inhibitor, partial curve, poor fit]
COc1ccc(-c2noc(CNS(=O)(=O)c3ccccc3)n2)cc1 | inactive: -3.93% | 
CCC[C@@H]1CCCO[C@@](C(=O)NCc2cc(C)n(C)n2)(C(F)(F)F)C1 |  | inconclusive: 100 µM [inhibitor, single point]
O=C(OCc1cc(=O)n2ccsc2n1)c1ccccc1NCCO |  | inconclusive: 89.1 µM [inhibitor, single point]
Cc1cc2nc(/C(C#N)=C\c3ccc(-c4ccccc4C(=O)O)o3)[nH]c2cc1C |  | inconclusive: 70.8 µM [inhibitor, partial curve, poor fit]
O=C(O)/C=C/c1ccc2ccccc2c1 |  | inconclusive: 79.4 µM [inhibitor, partial curve, poor fit]
O=C1C2C3C=CC(CC3)C2C(=O)N1/N=C/c1ccc(O)c(O)c1 (stereo unspecified) |  | inconclusive: 79.4 µM [inhibitor, partial curve]
O=C1/C(=C/c2ccco2)Oc2c1ccc(O)c2CN1CCCCC1 |  | active: 79.4 µM
